From paper PMC7294946 come the findings set out here.

The chains behind the UniProt entries cited, without tags or fusion partners. Where a name states a change or a piece, a line headed by the entry shows the natural chain unless it says otherwise.
UniProt O96013: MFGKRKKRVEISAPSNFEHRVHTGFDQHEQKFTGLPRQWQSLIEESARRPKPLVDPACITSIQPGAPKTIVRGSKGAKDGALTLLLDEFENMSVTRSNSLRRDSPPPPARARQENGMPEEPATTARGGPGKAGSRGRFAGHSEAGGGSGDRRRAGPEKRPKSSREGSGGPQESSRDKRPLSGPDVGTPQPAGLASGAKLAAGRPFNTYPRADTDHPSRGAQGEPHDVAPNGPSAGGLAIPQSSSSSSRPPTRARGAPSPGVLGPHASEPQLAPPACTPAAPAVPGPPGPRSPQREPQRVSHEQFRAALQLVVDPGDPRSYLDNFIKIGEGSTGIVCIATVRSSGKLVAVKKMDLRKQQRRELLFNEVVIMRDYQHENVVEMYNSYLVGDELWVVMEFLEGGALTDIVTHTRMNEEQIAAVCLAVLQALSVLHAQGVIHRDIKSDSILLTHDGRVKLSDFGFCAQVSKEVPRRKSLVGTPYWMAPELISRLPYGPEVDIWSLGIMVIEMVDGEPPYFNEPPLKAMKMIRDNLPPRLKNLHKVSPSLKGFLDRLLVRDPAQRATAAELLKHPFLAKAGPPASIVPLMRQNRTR
UniProt Q01196: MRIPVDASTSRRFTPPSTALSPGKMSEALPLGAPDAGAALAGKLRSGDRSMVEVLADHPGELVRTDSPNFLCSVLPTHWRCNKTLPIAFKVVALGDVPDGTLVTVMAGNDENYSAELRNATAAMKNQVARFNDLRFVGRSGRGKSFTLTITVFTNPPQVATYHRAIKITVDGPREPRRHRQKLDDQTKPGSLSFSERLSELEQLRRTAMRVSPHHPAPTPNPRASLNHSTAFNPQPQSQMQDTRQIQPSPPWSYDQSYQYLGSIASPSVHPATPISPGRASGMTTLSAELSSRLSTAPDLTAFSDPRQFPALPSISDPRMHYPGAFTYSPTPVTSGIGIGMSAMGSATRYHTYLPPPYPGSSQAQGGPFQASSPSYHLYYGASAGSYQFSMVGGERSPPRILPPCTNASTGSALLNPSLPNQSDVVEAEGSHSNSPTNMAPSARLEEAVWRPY
UniProt Q99873: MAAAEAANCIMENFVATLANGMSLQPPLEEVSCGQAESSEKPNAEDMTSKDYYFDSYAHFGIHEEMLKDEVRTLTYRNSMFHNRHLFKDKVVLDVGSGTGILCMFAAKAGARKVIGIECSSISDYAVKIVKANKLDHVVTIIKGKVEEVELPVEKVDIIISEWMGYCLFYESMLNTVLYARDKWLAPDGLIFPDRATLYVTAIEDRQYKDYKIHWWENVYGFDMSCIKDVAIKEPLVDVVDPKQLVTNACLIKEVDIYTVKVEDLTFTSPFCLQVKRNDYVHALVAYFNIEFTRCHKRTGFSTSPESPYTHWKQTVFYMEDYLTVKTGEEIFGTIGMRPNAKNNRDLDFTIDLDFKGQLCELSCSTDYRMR
UniProt Q13547: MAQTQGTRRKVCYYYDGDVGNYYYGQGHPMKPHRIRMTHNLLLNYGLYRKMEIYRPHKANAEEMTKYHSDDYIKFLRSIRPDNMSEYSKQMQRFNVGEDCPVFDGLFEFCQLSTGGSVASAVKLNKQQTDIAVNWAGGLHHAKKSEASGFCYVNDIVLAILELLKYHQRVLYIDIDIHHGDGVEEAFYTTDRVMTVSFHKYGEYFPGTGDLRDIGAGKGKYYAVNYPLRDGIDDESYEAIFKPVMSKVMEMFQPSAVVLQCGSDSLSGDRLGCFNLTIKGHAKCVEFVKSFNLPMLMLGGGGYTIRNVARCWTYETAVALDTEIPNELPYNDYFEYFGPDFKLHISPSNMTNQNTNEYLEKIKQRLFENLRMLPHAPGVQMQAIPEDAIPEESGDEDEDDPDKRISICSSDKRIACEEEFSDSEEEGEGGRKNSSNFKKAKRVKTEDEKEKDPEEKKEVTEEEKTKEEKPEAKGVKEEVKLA

The target in one test is GST-PAK4 (UniProt O96013). The test can be described thus: pull-down; bacterially expressed GST fusion (glutathione-conjugated Sepharose beads) incubated with the recombinant human partner in vitro; western blot; both purified.
The target in a further test is GST-RUNX1 (UniProt Q01196). The description is as above.
Test [1] has as its target Endogenous RUNX1 (human (endogenous in MCF-7 and ZR-75-30)) (UniProt Q01196). The test can be described thus: co-IP; nuclear and cytoplasmic fractions of MCF-7 cells cultured without E2; western blot. In general terms: A western blot detects proteins with antibodies after separation by electrophoresis.
Test [2] has the same target. Nature of the test: co-IP; nuclear and cytoplasmic fractions of MCF-7 cells cultured with E2 (physiological conditions); western blot.
Test [3] has the same target. Nature of the test: co-IP; endogenous proteins; lysates (2 mg total protein) of MCF-7 and ZR-75-30 cells immunoprecipitated with RUNX1 antibodies or IgG, Protein A agarose, overnight 4°C; western blot; also in cells transfected with Flag-PAK4 WT, NE or KM or treated with PF-3758309.
The next test addresses Flag-RUNX1 T207A (UniProt Q01196). The test can be described thus: co-IP; MCF-7 and ZR-75-30 cells transfected with Flag-RUNX1 WT, T207A or T207D; immunoprecipitated with Flag antibodies; western blot.
The next test concerns the target Flag-RUNX1 T207D (UniProt Q01196). Described as above.
The target of another test is Flag-RUNX1 WT (UniProt Q01196). Described as above.

No constants are given. Whether binding was seen depends on the method and setting. For some of these results: In cells and extracts the contact can be indirect. Some results given as binding are weak or reduced against the parent protein; the word gives no strength.

With “Recombinant human RUNX1 (from UniProt Q01196 1-453)”, the binding entry with GST-PAK4 is given as “binds”.
As to “Recombinant human PAK4 (from UniProt O96013 1-591) (enzyme)”, the binding result with GST-RUNX1 is on record as “binds”.
As for “Endogenous PAK4 (from UniProt O96013 1-591) (enzyme)”, the results for the binding result in test [1], in test [2] and in test [3] were “no binding (condition: cells cultured without E2)”, “binds” and “binds”, respectively.
For “Endogenous PRMT1 (from UniProt Q99873 1-371) (enzyme)”, the binding result (with Flag-RUNX1 T207A; with Flag-RUNX1 T207D; with Flag-RUNX1 WT; in test [3]) was “binds” in each case.
On to “Endogenous HDAC1 (from UniProt Q13547 1-482) (enzyme)”, for which the binding result in test [3] was “binds”.
